From patent US20240368258A1 (RUTGERS THE STATE UNIVERSITY OF NEW JERSEY, published 2024) come the findings set out here.

In the test the target is T1, EphA5 expressed on H460 human lung carcinoma cells (human, UniProt P54756 25-1037).
T1 construct: whole, on cells; H226 cells served as the EphA5-negative cell line; also called native EphA5 target; endogenous EphA5 expressed on the cell surface
In words: whole cell phage-ELISA, monovalent phage on H460 cells. The method, then:
Single scFv clones were produced as monovalent phage and tested for binding on H460 human lung carcinoma (EphA5 positive) and H226 human lung squamous cell carcinoma (EphA5 negative) cell lines in vitro. Briefly, cells were seeded on 96-well plate, blocked and incubated with phage displaying the scFv of interest at different concentrations. After washing, cell surface bound phage were detected with the antiM13-HRP conjugated mAb (GE).

T1 sequence (P54756 25-1037): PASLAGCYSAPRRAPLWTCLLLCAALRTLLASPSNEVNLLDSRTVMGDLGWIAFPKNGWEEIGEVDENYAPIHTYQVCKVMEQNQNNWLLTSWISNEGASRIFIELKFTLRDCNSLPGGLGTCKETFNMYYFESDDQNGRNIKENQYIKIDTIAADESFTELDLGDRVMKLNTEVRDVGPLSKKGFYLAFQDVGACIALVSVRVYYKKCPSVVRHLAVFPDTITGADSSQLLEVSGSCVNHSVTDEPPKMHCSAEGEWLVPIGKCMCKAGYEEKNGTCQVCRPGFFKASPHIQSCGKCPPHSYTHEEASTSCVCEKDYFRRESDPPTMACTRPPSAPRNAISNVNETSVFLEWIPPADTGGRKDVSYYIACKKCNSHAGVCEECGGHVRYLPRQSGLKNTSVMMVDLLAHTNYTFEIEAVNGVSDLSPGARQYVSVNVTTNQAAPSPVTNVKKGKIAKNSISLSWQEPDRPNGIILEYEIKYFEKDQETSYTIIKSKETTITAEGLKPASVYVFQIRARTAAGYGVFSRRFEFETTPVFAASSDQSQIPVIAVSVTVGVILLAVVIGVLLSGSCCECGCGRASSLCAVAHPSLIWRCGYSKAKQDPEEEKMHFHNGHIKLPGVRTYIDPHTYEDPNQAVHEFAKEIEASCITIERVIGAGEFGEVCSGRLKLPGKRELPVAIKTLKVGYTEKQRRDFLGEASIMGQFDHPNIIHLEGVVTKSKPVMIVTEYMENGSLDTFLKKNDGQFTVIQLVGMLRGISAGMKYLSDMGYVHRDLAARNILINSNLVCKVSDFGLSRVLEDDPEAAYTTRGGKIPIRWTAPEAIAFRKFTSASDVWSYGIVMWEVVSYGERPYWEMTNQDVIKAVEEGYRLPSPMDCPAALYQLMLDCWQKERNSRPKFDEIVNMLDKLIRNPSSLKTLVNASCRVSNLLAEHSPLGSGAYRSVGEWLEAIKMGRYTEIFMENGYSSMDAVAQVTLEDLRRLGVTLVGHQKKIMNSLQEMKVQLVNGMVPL

B1: antiEphA5_E31 scFv (scFv)
scFv: SYELIQPPSVSVAPGQTARITCGGSNIRSKSVHWYQQKPGQAPVLVVYDDSDRPSGIPERFSGSNSGNTATLTISRVEAGDEADYYCQVWDSSSDHWVFGGRTKVTVLSGGSTTTSYNVYYTKLSSSGT[about 100 residues left out here]HAAAGDYWGQGTLVTVSS
As to B1, the binding result was “binds”.
